Hit rate of the full screen: of about 94,000 compounds, about 4,000 (4.3%) were called active. Inconclusive results, whose numbers are uncertain, are shown with a selection of clear calls. Calls follow the shape of the dose curve; as a rule, active = well fitted inhibition curve with a large enough effect; inconclusive = small, poorly fitted or top-dose-only effect; inactive = no such curve, though single readings can be large or run the other way. Potencies beside an inconclusive call are fits to weak or partial responses and may not hold up.
Test: Cytotoxic Profiling in NIH 3T3 Cell Line of Diverse Libraries Using Quantitative High-Throughput Screening; also: nearly all actives have a fitted effect of over 55% in size
Conditions: NIH 3T3 viability, CellTiter-Glo ATP luminescence, 48-72 h; activity change, negative = cytotoxicity: at 96.7 µM (top of the series) unless noted; series mostly up to 96.7 µM
Procedure, shortened: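 Cells were seeded at 400 per well, treated with pin-transferred compound, and kept 48 or 72 hr at 37 °C before CellTiter-Glo addition and luminescence imaging of cellular ATP.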
% is scaled to controls: 0 for no effect and ±100 for the full control effect; potency is read from the fitted curve at half-maximal effect; tags tell the direction and shape of the fitted curve.

| SMILES | Potency | activity change, negative = cytotoxicity | outcome |
| --- | --- | --- | --- |
| CN(C)CC1(O)CCCN(Cc2cc3ccccc3n2C)C1 (stereo unspecified) | inconclusive: 79.4 µM [inhibitor, partial curve, poor fit] |  |  |
| COCc1nncn1C1CCN(S(=O)(=O)c2ccc(C)cc2C)CC1 | inconclusive: 44.7 µM [inhibitor, partial curve, poor fit] |  |  |
| Cc1noc2c(NCCCn3ccnc3)cc(-c3cccc(C(F)(F)F)c3)nc12 | inconclusive: 20 µM [inhibitor, partial curve, poor fit] |  |  |
| COc1ccc(-c2cc(-c3ccc(F)cc3OC)cn3cncc23)cc1 | inconclusive: 10 µM [inhibitor, full curve, poor fit] |  |  |
| CO[C@@H]1CO[C@H]2[C@@H]1OC[C@@H]2NC(=O)Nc1cccc(C(F)(F)F)c1 | inconclusive: 126 µM [inhibitor, single point] |  |  |
| COc1ccc(-c2cc(C[C@@H]3CC[C@H](O)[C@@H](CNCc4cccc(Cl)c4)O3)no2)cc1 | inconclusive: 50.1 µM [inhibitor, partial curve, poor fit] |  |  |
| O=C(Cc1c[nH]c2ccccc12)N1CCC(Oc2ccc(-c3noc(C4CC4)n3)cc2)C1 (stereo unspecified) | inconclusive: 50.1 µM [inhibitor, partial curve, poor fit] |  |  |
| NC(=O)c1cccc(CN2CCC3(CC2)Cc2ccccc2N(C(=O)C2CCCC2)C3)c1 | inconclusive: 70.8 µM [inhibitor, partial curve, poor fit] |  |  |
| COc1ccc(S(=O)(=O)N2CCC3(CC2)CC(CC(=O)N2CCCC2)CCO3)cc1 (stereo unspecified) | inconclusive: 44.7 µM [inhibitor, partial curve, poor fit] |  |  |
| NC(=O)c1cccc(-c2n[nH]c3c2CC(=O)N(Cc2ccccc2F)C3)c1 | inconclusive: 22.4 µM [inhibitor, full curve, poor fit] |  |  |
| Cc1ccc(S(=O)(=O)Nc2ccc3c(c2)CN(Cc2ccccc2)C(=O)CO3)cc1 | inconclusive: 50.1 µM [inhibitor, partial curve, poor fit] |  |  |
| C[S+](=O)([O-])c1ccc(-c2nnc3ccc(C(=O)NCc4ccc(F)c(F)c4)cn23)cc1 | inconclusive: 44.7 µM [inhibitor, partial curve] |  |  |
| CC(C)NC(=O)NC1CCCN(c2ccc3nnc(-c4ccccc4)n3n2)C1 (stereo unspecified) | inconclusive: 70.8 µM [inhibitor, partial curve, poor fit] |  |  |
| CN1c2cc(C(=O)Nc3ccc(F)c(Cl)c3)ccc2C(=O)N2CCCCC21 (stereo unspecified) | inconclusive: 56.2 µM [inhibitor, partial curve, poor fit] |  |  |
| O=C(NC1CCN(c2cc(-c3ccc(Cl)cc3)[nH]n2)C1)c1ccccc1F (stereo unspecified) | inconclusive: 44.7 µM [inhibitor, partial curve, poor fit] |  |  |
| Cc1nc([C@@H]2CN(C(=O)c3ccc(Br)o3)C[C@H]2C(N)=O)n[nH]1 |  | inactive: -8.44% |  |
| CCCCc1ccc(NC(=O)c2ccc3c(c2)N(S(C)(=O)=O)CC3)cc1 |  | inactive: 4.9% |  |
| Cc1cnc(CC2CCN(Cc3ccc(F)cc3F)C2)n1CC1CC1 (stereo unspecified) | inconclusive: 50.1 µM [inhibitor, partial curve, poor fit] |  |  |
| Cc1nn(-c2ccccc2)c2c1C(C)N(C1CN(C(=O)C3CC3)C1)C2=O (stereo unspecified) | inconclusive: 50.1 µM [inhibitor, partial curve, poor fit] |  |  |
| COc1ccc(C(=O)N2CC3(C2)NC(=O)c2ccccc2O3)cc1 | inconclusive: 39.8 µM [inhibitor, partial curve, poor fit] |  |  |
| CCN1CCN(CC(O)COc2cccc(CNCCc3cccc(C)n3)c2)CC1 (stereo unspecified) |  | inactive: -27.9% |  |

| SMILES | Potency | activity change, negative = cytotoxicity | outcome |
| --- | --- | --- | --- |
| COc1ccc(CCNc2ncnc3c2CN(C2CCC2)C(=O)N(C)C3)cc1 | inconclusive: 50.1 µM [inhibitor, partial curve, poor fit] |  |  |
| COC(=O)c1ccc2nc(C[C@@H]3C[C@@H](C(C)C)[C@H](CNCc4ccccc4O)C=C3C)[nH]c2c1 | active: 20 µM |  |  |
| COc1ccc(CNC(=O)C[C@@H]2CCNC[C@@H]2Cc2cc(CSc3ccccc3)on2)cc1 | inconclusive: 89.1 µM [inhibitor, single point] |  |  |
| COc1ccc(C(=O)N2CCc3cn(C)c4cccc(c34)C2)c(C)c1 | inconclusive: 35.5 µM [inhibitor, partial curve, poor fit] |  |  |
| C=CCN1CCc2ccccc2N(CC(O)COc2ccc(OC)cc2)CCC1=O (stereo unspecified) | inconclusive: 35.5 µM [inhibitor, partial curve, poor fit] |  |  |
| CC1CCN(C(=O)c2cc3c(s2)CCC(C(=O)O)C3)CC1 (stereo unspecified) |  | inactive: -29.7% |  |
| COCc1cccc(-c2n[nH]c3c2CC(=O)N(CCOc2ccccc2)C3)c1 | inconclusive: 44.7 µM [inhibitor, full curve] |  |  |
| Cc1cc2cc(-c3c(C)noc3C)nc(N3CCCC3)c2o1 | inconclusive: 79.4 µM [inhibitor, partial curve, poor fit] |  |  |
| O=C(NCc1cc(F)cc(F)c1)c1ccc(Cn2ccn3nc4c(c3c2=O)CCCC4)cc1 | inconclusive: 20 µM [inhibitor, full curve, poor fit] |  |  |
| CNC(=O)c1cc(C2CC2)nc2c1c(C1CCN(C(=O)c3cccc(OC)c3)C1)nn2C (stereo unspecified) | inconclusive: 35.5 µM [inhibitor, partial curve] |  |  |
| O=C(NC1CCCc2c1[nH]c1ccccc21)c1ccco1 (stereo unspecified) | inconclusive: 56.2 µM [inhibitor, partial curve, poor fit] |  |  |
| COc1ccc(-c2nc(-c3c(C)noc3C)cc3c2cc(C)n3CCN(C)C)cn1 | inconclusive: 35.5 µM [inhibitor, partial curve, poor fit] |  |  |
| COc1cc(NC(=O)CN2C(=O)C(c3ccccc3)=NC23CCCC3)cc(OC)c1OC | inconclusive: 44.7 µM [inhibitor, partial curve, poor fit] |  |  |
| Cc1cc(C)c(S(=O)(=O)c2nnn3c2nc(NCc2ccc(F)cc2)c2ccccc23)c(C)c1 | inconclusive: 10 µM [inhibitor, partial curve, poor fit] |  |  |
| COc1ccc(-c2[nH]nc3ncc(C(=O)Nc4ccccc4)nc23)c(C)c1 | active: 28.2 µM |  |  |
| O=C(NCCc1noc(-c2ccncc2)n1)c1c2c(nc3ccccc13)CCCC2 | inconclusive: 70.8 µM [inhibitor, partial curve, poor fit] |  |  |
| O=C(c1ccc(F)cc1)N1CCN(C(=O)c2nc3cccnc3n(Cc3ccccc3)c2=O)CC1 |  | inactive: -9.46% |  |
| CC1=C[C@@H](CN2CCN(c3ncccn3)CC2)[C@H](C(C)C)C[C@H]1Cc1nnc(COc2ccc(F)cc2)o1 | active: 39.8 µM |  |  |
| Cc1cccc([C@H]2C[C@@H](O)[C@@H](O)[C@@H]2NC(=O)C2CCOCC2)c1 |  | inactive: 1.58% [at 174 µM] |  |
| CCCS(=O)(=O)N1CCC(CC(=O)NCc2ccccc2)C1 (stereo unspecified) |  | inactive: 1.09% |  |
| O=C(c1ccccc1)N1CCN(c2nccc(Nc3ccccc3F)n2)CC1 | inconclusive: 44.7 µM [inhibitor, partial curve, poor fit] |  |  |

| SMILES | Potency | activity change, negative = cytotoxicity | outcome |
| --- | --- | --- | --- |
| COCCO[C@H]1C(=O)N(C2CCN(Cc3ccccc3C#N)CC2)[C@H]1c1ccncc1 |  | inactive: -16.3% |  |
| CSc1ccc(-c2cccc(C(=O)NCCNC(=O)Nc3ccccc3)c2)cc1 | inconclusive: 50.1 µM [inhibitor, partial curve, poor fit] |  |  |
| O=C1COc2ccc(Nc3cccc(F)c3)nc2CN1CCOc1ccccc1 | active: 89.1 µM |  |  |
| Cc1noc(-c2cccn3c(CNC(=O)c4ccccc4C)nnc23)n1 |  |  | inactive |
| O=C(Cc1ccc(F)cc1)Nc1cc(C2CC2)nn1-c1ccccc1 | inconclusive: 79.4 µM [inhibitor, partial curve] |  |  |
| Cn1nccc1C(=O)N1CC(CNC(=O)c2ccccc2)C2(C1)CN(c1ccccc1)C2 (stereo unspecified) | inconclusive: 100 µM [inhibitor, single point] |  |  |
| O=C(NC1CCN(C(=O)N2CC3CC(C2)[C@H]2CCCC(=O)N2C3)CC1)c1ccccn1 (stereo partly specified) |  | inactive: 0.488% |  |
| CN1C(=O)[C@@H]2C[C@@H](CN2Cc2ccc(F)c(F)c2)Oc2ccccc21 | inconclusive: 100 µM [inhibitor, partial curve, poor fit] |  |  |
| Cc1ccc(CN2C(=O)NC3(CCCN(C(=O)c4ccc(F)c(Cl)c4)C3)C2=O)cc1 (stereo unspecified) | inconclusive: 50.1 µM [inhibitor, single point] |  |  |
| Cc1nc(CC2CCN(C(=O)C3CCCC3)CC2)n[nH]1 |  | inactive: 0.954% |  |
| CN1C(=O)[C@H]2CN(Cc3ccc(C#N)cc3)C[C@H]2C1=O |  |  | inactive |
| NC(=O)Nc1ccc(S(=O)(=O)NCc2cc3n(n2)CCCNC3)cc1 |  | inactive: 2.24% |  |
| CC1(C(=O)NCc2ccccc2)CN(Cc2ccccc2)Cc2ccc(N3CCOCC3)nc21 (stereo unspecified) | inconclusive: 44.7 µM [inhibitor, partial curve, poor fit] |  |  |
| O=C(NC[C@H]1Cn2c(-c3ccc(Cl)cc3)cnc2CO1)Nc1ccccc1 | inconclusive: 28.2 µM [inhibitor, full curve, poor fit] |  |  |
| O=C1CCN(S(=O)(=O)c2ccc3c(c2)CCC3)CCCC(C(=O)NCc2ccncc2)CCN1 (stereo unspecified) |  | inactive: -17.4% |  |
| O=C(NCc1ccccn1)C1CCN(c2nccc(-c3cccnc3)n2)CC1 | inconclusive: 100 µM [inhibitor, single point] |  |  |
| Cc1nc(CN2C(=O)OC3(CCN(C(=O)Cc4ccc(O)cc4)CC3)C2(C)c2ccccc2)cs1 (stereo unspecified) | inconclusive: 10 µM [inhibitor, full curve, poor fit] |  |  |
| COc1ccc(C(=O)N2CCCC(n3cc(-c4nc(C)no4)nn3)C2)cc1OC (stereo unspecified) | inconclusive: 79.4 µM [inhibitor, partial curve, poor fit] |  |  |
| COc1ccc(CNC(=O)C2CCCN(Cc3cccc(-c4ccsc4)c3)C2)cc1 (stereo unspecified) | inconclusive: 44.7 µM [inhibitor, partial curve, poor fit] |  |  |

Reference: PubChem BioAssay AID1345082 (National Center for Advancing Translational Sciences (NCATS), 2018)
